# Source: US12583836B2 (Anaxis Pharma Pty Ltd, priority 2020, dated 2026)
# Assays:
# MLKL (full length) = biological target: T1, MLKL (full length) (Homo sapiens, UniProt Q8NB16); test: KINOMEscan binding assay, MLKL; conditions: equilibrium dissociation constant, class symbols
# T1 construct: purchased DiscoverX (KINOMEscan service); host or cells: E. coli BL21-derived (T7 phage) or HEK293
# T1 sequence (Q8NB16 1-471): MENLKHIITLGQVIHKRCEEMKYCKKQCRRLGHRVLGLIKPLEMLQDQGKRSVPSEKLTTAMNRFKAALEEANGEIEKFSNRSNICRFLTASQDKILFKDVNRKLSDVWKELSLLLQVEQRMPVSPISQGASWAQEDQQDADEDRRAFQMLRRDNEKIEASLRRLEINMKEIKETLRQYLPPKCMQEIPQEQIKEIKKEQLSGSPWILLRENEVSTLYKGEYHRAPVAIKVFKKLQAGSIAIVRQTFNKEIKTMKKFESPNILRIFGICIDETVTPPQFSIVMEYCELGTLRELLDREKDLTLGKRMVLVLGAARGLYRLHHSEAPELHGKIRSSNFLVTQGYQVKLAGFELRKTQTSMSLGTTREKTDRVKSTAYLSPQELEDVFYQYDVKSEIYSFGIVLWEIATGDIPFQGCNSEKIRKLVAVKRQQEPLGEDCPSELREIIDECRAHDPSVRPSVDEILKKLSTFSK
# Text: The Hill Slope was set to −1.
# RIP1 = biological target: T2, RIP1 (Homo sapiens, UniProt Q13546); test: KINOMEscan binding assay, RIP1; conditions: equilibrium dissociation constant, class symbols
# T2 construct: purchased DiscoverX (KINOMEscan service); host or cells: E. coli BL21-derived (T7 phage) or HEK293
# T2 sequence (Q13546 1-671): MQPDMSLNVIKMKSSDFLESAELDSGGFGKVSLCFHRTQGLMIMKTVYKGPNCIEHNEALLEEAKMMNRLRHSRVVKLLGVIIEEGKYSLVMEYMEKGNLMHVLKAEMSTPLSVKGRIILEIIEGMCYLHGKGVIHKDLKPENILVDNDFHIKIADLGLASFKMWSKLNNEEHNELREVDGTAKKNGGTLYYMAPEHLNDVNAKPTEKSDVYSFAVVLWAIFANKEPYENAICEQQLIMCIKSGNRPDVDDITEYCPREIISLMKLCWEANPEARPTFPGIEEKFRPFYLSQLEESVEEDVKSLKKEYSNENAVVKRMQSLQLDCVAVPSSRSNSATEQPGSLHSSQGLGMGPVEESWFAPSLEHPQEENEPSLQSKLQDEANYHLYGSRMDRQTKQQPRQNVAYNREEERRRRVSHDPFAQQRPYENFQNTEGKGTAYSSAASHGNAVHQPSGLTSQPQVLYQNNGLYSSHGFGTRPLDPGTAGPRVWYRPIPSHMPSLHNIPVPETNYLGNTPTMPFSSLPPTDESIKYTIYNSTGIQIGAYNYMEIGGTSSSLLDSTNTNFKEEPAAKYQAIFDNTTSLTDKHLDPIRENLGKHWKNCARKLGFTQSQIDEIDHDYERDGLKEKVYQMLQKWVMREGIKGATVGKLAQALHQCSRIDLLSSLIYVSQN
Structure (SMILES),Kd (MLKL (full length)),Kd (RIP1)
"CCS(=O)(=O)Nc1ccc(-c2n[nH]c(Nc3cccc(C(F)(F)F)n3)c2C(N)=O)cc1OCc1cccnc1 [Compound 33, 3-(4-(ethylsulfonamido)-3-(pyridin-3-ylmethoxy)phenyl)-5-((6-(trifluoromethyl)pyridin-2-yl)amino)-1H-pyrazole-4-carboxamide]",10 to 1000 nM,> 30000 nM
"NC(=O)c1c(-c2ccc(NS(=O)(=O)Cc3ccc(F)cc3)cc2)n[nH]c1Nc1cccc(C(F)(F)F)n1 [Compound 55, 3-(4-(((4-fluorophenyl)methyl)sulfonamido)phenyl)-5-((6-(trifluoromethyl)pyridin-2-yl)amino)-1H-pyrazole-4-carboxamide]",10 to 1000 nM,> 30000 nM
"NC(=O)c1c(-c2ccc(NS(=O)(=O)Cc3ccccc3Cl)cc2)n[nH]c1Nc1cccc(C(F)(F)F)n1 [Compound 58, 3-(4-(((2-chlorophenyl)methyl)sulfonamido)phenyl)-5-((6-(trifluoromethyl)pyridin-2-yl)amino)-1H-pyrazole-4-carboxamide]",10 to 1000 nM,> 30000 nM
"CCS(=O)(=O)Nc1ccc(-c2n[nH]c(NC)c2C(N)=O)cc1 [Compound 119, 3-(4-(ethylsulfonamido)phenyl)-5-(methylamino)-1H-pyrazole-4-carboxamide]",10 to 1000 nM,1000 to 30000 nM
"NC(=O)c1c(-c2ccc(NS(=O)(=O)C(F)F)cc2)n[nH]c1Nc1ccccn1 [Compound 48, 3-(4-((difluoromethyl)sulfonamido)phenyl)-5-(pyridin-2-ylamino)-1H-pyrazole-4-carboxamide]",< 10 nM,> 30000 nM
"CCS(=O)(=O)Nc1ccc(-c2n[nH]c(Nc3cnccn3)c2C(N)=O)cc1OCc1ccc(F)c(F)c1 [Compound 1, 3-(3-((3,4-difluorobenzyl)oxy)-4-(ethylsulfonamido)phenyl)-5-(pyrazin-2-ylamino)-1H-pyrazole-4-carboxamide]",< 10 nM,> 30000 nM
"CCS(=O)(=O)Nc1ccc(-c2n[nH]c(Nc3cccnn3)c2C(N)=O)cc1 [Compound 64, 3-(4-ethanesulfonamidophenyl)-5-[(pyridazin-3-yl)amino]-1H-pyrazole-4-carboxamide]",10 to 1000 nM,> 30000 nM
"NC(=O)c1c(-c2ccc(NS(=O)(=O)CC3CCC3)cc2)n[nH]c1Nc1cnccn1 [Compound 81, 3-(4-((cyclobutylmethyl)sulfonamido)phenyl)-5-(pyrazin-2-ylamino)-1H-pyrazole-4-carboxamide]",10 to 1000 nM,> 30000 nM
"Cc1ccc(CS(=O)(=O)Nc2ccc(-c3n[nH]c(Nc4ccccn4)c3C(N)=O)cc2)cc1 [Compound 132, 5-(pyridin-2-ylamino)-3-(4-((p-tolylmethyl)sulfonamido)phenyl)-1H-pyrazole-4-carboxamide]",10 to 1000 nM,> 30000 nM
"N#CCS(=O)(=O)Nc1ccc(-c2n[nH]c(Nc3cccc(C(F)(F)F)n3)c2C(N)=O)cc1 [Compound 29, 3-(4-((cyanomethyl)sulfonamido)phenyl)-5-((6-(trifluoromethyl)pyridin-2-yl)amino)-1H-pyrazole-4-carboxamide]",< 10 nM,> 30000 nM
"NC(=O)c1c(-c2ccc(NS(=O)(=O)CC(F)(F)F)c(Oc3ccc(F)cc3)c2)n[nH]c1Nc1cccc(C(F)(F)F)n1 [Compound 148, 3-(3-(4-fluorophenoxy)-4-((2,2,2-trifluoroethyl)sulfonamido)phenyl)-5-((6-(trifluoromethyl)pyridine-2-yl)amino)-1H-pyrazole-4-carboxamide]",< 10 nM,> 30000 nM
"CCS(=O)(=O)Nc1ccc(-c2n[nH]c(Nc3cccnc3)c2C(N)=O)cc1OCc1ccc(F)cc1 [Compound 6, 3-(4-(ethylsulfonamido)-3-((4-fluorobenzyl)oxy)phenyl) 5-(pyridin-3-ylamino)-1H pyrazole-4-carboxamide]",10 to 1000 nM,> 30000 nM
"NC(=O)c1c(-c2ccc(NS(=O)(=O)CC(F)F)c(OCc3ccc(F)cc3)c2)n[nH]c1Nc1cccc(C(F)(F)F)n1 [Compound 178, 3-(4-((2,2-difluoroethyl)sulfonamido)-3-((4-fluorobenzyl)oxy)phenyl)-5-((6-(trifluoromethyl)pyridine-2-yl)amino)-1H-pyrazole-4-carboxamide]",< 10 nM,> 30000 nM

# Continued, values first:
Kd (MLKL (full length)),Kd (RIP1),Structure (SMILES)
< 10 nM,> 30000 nM,"CCS(=O)(=O)Nc1ccc(-c2n[nH]c(Nc3cnccn3)c2C(N)=O)cc1OCCc1ccccc1 [Compound 210, 3-(4-(ethylsulfonamido)-3-phenethoxyphenyl)-5-(pyrazin-2-ylamino)-1H-pyrazole-4-carboxamide]"
< 10 nM,> 30000 nM,NC(=O)c1c(-c2ccc(NS(=O)(=O)CC(F)(F)F)c(OCc3ccc(F)cc3)c2)n[nH]c1Nc1ccccn1 [Compound 239]
< 10 nM,> 30000 nM,"NC(=O)c1c(-c2ccc(NS(=O)(=O)CC(F)(F)F)c(OCc3ccccn3)c2)n[nH]c1Nc1cnccn1 [Compound 227, 5-[(pyrazin-2-yl)amino]-3-{3-[(pyridin-2-yl)methoxy]-4-(2,2,2-trifluoroethanesulfonamido)phenyl}-1H-pyrazole-4-carboxamide]"
10 to 1000 nM,> 30000 nM,"C[C@H](Oc1cc(NS(=O)(=O)C(F)F)ccc1-c1n[nH]c(Nc2cnccn2)c1C(N)=O)c1ccc(F)cc1 [Compound 243, 3-[4-(difluoromethanesulfonamido)-2-[(1S)-1-(4-fluorophenyl)ethoxy]phenyl]-5-[(pyrazin-2-yl)amino]-1H-pyrazole-4-carboxamide]"
10 to 1000 nM,> 30000 nM,"C[C@@H](Oc1cc(NS(=O)(=O)C(F)F)ccc1-c1n[nH]c(Nc2cnccn2)c1C(N)=O)c1ccc(F)cc1 [Compound 255, 3-[4-(difluoromethanesulfonamido)-2-[(1R)-1-(4-fluorophenyl)ethoxy]phenyl]-5-[(pyrazin-2-yl)amino]-1H-pyrazole-4-carboxamide]"
< 10 nM,> 30000 nM,"NC(=O)c1c(-c2ccc(NS(=O)(=O)C(F)F)c(OC(c3ccc(F)cc3)C3CCC3)c2)n[nH]c1Nc1cnccn1 (centres unmarked) [Compound 236, 3-{3-[cyclobutyl(4-fluorophenyl)methoxy]-4-(difluoromethanesulfonamido)phenyl}-5-[(pyrazin-2-yl)amino]-1H-pyrazole-4-carboxamide]"
< 10 nM,> 30000 nM,"COC[C@H](Cc1cc(-c2n[nH]c(Nc3cnccn3)c2C(N)=O)ccc1NS(=O)(=O)C(F)F)c1ccc(F)cc1 (single isomer, unassigned) [Compound 272]"
< 10 nM,> 30000 nM,"NC(=O)c1c(-c2ccc(NS(=O)(=O)CC(F)(F)F)c(OCc3ccc(Cl)cc3)c2)n[nH]c1Nc1ccccn1 [Compound 269, 3-{3-[(4-chlorophenyl)methoxy]-4-(2,2,2-trifluoroethanesulfonamido)phenyl}-5-[(pyridin-2-yl)amino]-1H-pyrazole-4-carboxamide]"
< 10 nM,> 30000 nM,"CCS(=O)(=O)Nc1ccc(-c2n[nH]c(Nc3cnccn3)c2C(N)=O)cc1Oc1cccc(F)c1 [Compound 204, 3-(4-(ethylsulfonamido)-3-(3-fluorophenoxy)phenyl)-5-(pyrazin-2-ylamino)-1H-pyrazole-4-carboxamide]"
10 to 1000 nM,> 30000 nM,"CCS(=O)(=O)Nc1ccc(-c2n[nH]c(Nc3cccnc3C(F)(F)F)c2C(N)=O)cc1OCc1ccc(F)cc1 [Compound 192, 3-(4-(ethylsulfonamido)-3-((4-fluorobenzyl)oxy)phenyl)-5-((2-(trifluoromethyl)pyridine-3-yl)amino)-1H-pyrazole-4-carboxamide]"
< 10 nM,> 30000 nM,"CCS(=O)(=O)Nc1ccc(-c2n[nH]c(Nc3ccnc(C(F)(F)F)n3)c2C(N)=O)cc1OCc1ccc(F)cc1 [Compound 195, 3-(4-(ethylsulfonamido)-3-((4-fluorobenzyl)oxy)phenyl)-5-((2-(trifluoromethyl)pyrimidin-4-yl)amino)-1H-pyrazole-4-carboxamide]"
< 10 nM,> 30000 nM,"CCS(=O)(=O)Nc1ccc(-c2n[nH]c(Nc3cnccn3)c2C(N)=O)cc1OCCc1cccc(F)c1 [Compound 219, 3-(4-(ethylsulfonamido)-3-(3-fluorophenethoxy)phenyl)-5-(pyrazin-2-ylamino)-1H-pyrazole-4-carboxamide]"
